# In all, about 310,000 compounds went through this assay and about 14,000 (4.5%) showed an effect of 50% or more. Effects have a minus sign here. Some of the results follow.
# Biological target: human ether-à-go-go-related gene (hERG) potassium channel (human, UniProt Q12809)
# Assay: primary screen, population patch clamp on CHO cells stably expressing hERG
# 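Note: peak tail current of the secondary pulse compared with the same well before compound.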
# Sequence of human ether-à-go-go-related gene (hERG) potassium channel (Q12809 whole entry, looked up): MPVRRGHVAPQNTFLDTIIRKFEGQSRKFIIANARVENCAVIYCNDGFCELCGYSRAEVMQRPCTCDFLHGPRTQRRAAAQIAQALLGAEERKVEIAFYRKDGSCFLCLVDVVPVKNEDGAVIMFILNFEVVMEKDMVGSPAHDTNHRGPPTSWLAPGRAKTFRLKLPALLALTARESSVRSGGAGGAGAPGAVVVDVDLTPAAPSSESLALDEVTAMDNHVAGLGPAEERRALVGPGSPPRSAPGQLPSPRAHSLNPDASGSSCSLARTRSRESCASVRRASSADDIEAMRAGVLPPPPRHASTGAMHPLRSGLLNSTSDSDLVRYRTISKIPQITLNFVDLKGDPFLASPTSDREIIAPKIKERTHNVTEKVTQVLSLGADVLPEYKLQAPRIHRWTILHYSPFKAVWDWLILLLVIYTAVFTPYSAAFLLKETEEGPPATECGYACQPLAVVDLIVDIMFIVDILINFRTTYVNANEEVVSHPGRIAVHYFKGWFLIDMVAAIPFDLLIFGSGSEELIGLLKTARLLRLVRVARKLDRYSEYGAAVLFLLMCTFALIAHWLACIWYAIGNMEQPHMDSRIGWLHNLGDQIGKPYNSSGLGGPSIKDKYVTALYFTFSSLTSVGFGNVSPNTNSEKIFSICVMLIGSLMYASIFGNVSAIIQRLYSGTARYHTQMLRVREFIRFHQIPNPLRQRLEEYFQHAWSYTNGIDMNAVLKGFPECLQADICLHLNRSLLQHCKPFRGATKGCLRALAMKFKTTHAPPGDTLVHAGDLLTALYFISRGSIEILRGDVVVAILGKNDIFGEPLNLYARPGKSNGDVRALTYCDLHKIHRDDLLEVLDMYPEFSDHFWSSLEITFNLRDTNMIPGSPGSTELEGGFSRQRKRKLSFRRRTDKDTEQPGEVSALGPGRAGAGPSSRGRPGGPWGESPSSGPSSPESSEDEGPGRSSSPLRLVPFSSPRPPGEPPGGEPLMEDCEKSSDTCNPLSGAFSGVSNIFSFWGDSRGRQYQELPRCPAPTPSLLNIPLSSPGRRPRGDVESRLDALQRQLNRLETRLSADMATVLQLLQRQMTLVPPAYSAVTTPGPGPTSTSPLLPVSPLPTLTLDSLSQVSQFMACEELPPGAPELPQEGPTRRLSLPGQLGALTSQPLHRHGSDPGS
row,SMILES,"hERG current change (%, negative = inhibition) at 10uM"
1,O=C(Nc1ccccc1OC(F)F)c1ccc(F)cc1,-13.3%
2,Cn1c(-c2ccccc2)c(/C=N/NC(=O)c2ccc(O)cc2)c2ccccc21,7.43%
3,CCOc1ccc(S(=O)(=O)N2CCC(C(=O)OCc3ccc(OC)cc3)CC2)cc1,-24.7%
4,CC(NC(=O)C(=O)N1CCOCC1)C(c1cccs1)N1CCN(c2ccc(F)cc2)CC1 (stereo not drawn),-0.955%
5,CN1C(=O)C(=Cc2sc(=O)n(-c3ccccc3)c2N(C)C)C(=O)N(C)C1=O,-0.919%
6,CCNC(=O)NC(=O)CSc1ccc(NC(C)=O)cc1,11%
7,COc1ccc(C(=O)n2c(-c3ccco3)nc3ccccc32)cc1,-28.4%
8,CC(C)(C)N(Cc1ccccc1)C(=O)COC(=O)[C@@H]1CCCN1C(=O)c1cccs1,-2.57%
9,O=C(O)c1ccc(-c2nc(-c3ccccc3)cs2)cc1,18.3%
10,O=C(c1cnn2c(C(F)(F)F)cc(-c3ccccc3)nc12)N1CCOCC1,0.0897%
11,O=C(NCc1ccc(Cl)cc1)c1csc(-c2cccnc2)n1,-37%
12,Cc1ccc(C2CC(=O)Oc3cc(O)ccc32)cc1 (stereo not drawn),-15.2%
13,O=C(N/N=C/c1ccccc1)c1[nH]ncc1Br,24.6%
14,COc1cc2c(cc1OC)CN(C(=O)/C=C/c1ccccc1[N+](=O)[O-])CC2,-6.27%
15,Cc1ccc(-n2c(SCC(N)=O)nnc2-c2cnccn2)cc1,22%
16,CCc1ccc2nc3sc(C(=O)Nc4nnc(CC)s4)c(N)c3cc2c1,14.3%
17,CC(C)(C)c1ccc(NC(=O)N2CCCN(c3ccc([N+](=O)[O-])cn3)CC2)cc1,-25.9%
18,O=C1NC(=O)N(Cc2ccc(F)cc2)C(=O)/C1=C\c1ccc(N2CCCC2)cc1,11.8%
19,Cc1nc2ccccc2cc1OCc1ccc(Cl)cc1,15.3%
20,COc1cccc(C2CC(c3cccs3)=NN2C(=O)CSc2nc3ccccc3s2)c1OC (stereo not drawn),13.1%
21,Cc1ccc(S(=O)(=O)N2CCC(=O)N(C(COCc3ccc(Cl)cc3)Cc3ccccc3)CC2)cc1 (stereo not drawn),6.35%
22,Cc1ccc(C(C)C)cc1S(=O)(=O)NCc1cccnc1,2.11%
23,O=C(CN1CCCCCC1=O)N1CCN(S(=O)(=O)c2cccs2)CC1,16.1%
24,Cc1ccc2cc(CN(CC3CCCO3)C(=O)NC3CCCCC3)c(=O)[nH]c2c1C (stereo not drawn),-55.4%

# — article PMC4336329 (PLoS ONE, 2015)
